Results taken from patent US5143911A, “Antibiotic C-3 di-hydroxyphenyl substituted cephalosporin compounds, compositions and method of use thereof” (Bristol-Myers Squibb Company, priority 1990, dated 1992).
In brackets after ≈: the same amount, converted by molar mass.

What was measured:
P. aeruginosa A9843A [1] = settings: Pseudomonas aeruginosa, 18 h, pH 7.2
Experimental: Medium: MuellerHinton agar (pH = 7.2)
Incubation temperature: 32° C. 18 hr.
Inoculum size: 10^6 cells/ml

P. aeruginosa A9843A [2] = settings: Pseudomonas aeruginosa, im, read-out: PD50
Experimental: In vivo antibacterial activity of this series of cephalosporins was determined against three bacterial infections, S. aureus Smith, E. coli Juhl and P. aeruginosa A9843A by intramuscular administration to mice just after the bacterial change.

CO/N=C(\C(=O)NC1C(=O)N2C(C(=O)O)=C(/C=C/COC(=O)c3ccc(O)c(O)c3)CS[C@H]12)c1csc(N)n1 (some centres unmarked) [Ia, 7-[(Z)-2-(2-Aminothiazol-4-yl)-2-methoxyiminoacetamido]-3-[(E)-3-(3,4-dihydroxybenzoyloxy)-1-propen-1-yl]-3-cephem-4-carboxylic acid]
MIC (P. aeruginosa A9843A [1]): 3.1 µg/mL (≈ 5.39 µM) | ED50 (P. aeruginosa A9843A [2]): 0.62 mg/kg

CO/N=C(\C(=O)NC1C(=O)N2C(C(=O)O)=C(/C=C/COC(=O)c3ccc(O)c(O)c3)CS[C@H]12)c1nsc(N)n1 (some centres unmarked) [Ib, 7-[(Z)-2-(5-Amino-1,2,4-thiadiazol-3-yl)-2-methoxyiminoacetamido]-3-[(E)-3-(3,4-dihydroxybenzoyloxy)-1-propen-1-yl]-3-cephem-4carboxylic acid]
ED50 (P. aeruginosa A9843A [2]): 0.17 mg/kg

CC(C)(O/N=C(\C(=O)NC1C(=O)N2C(C(=O)O)=C(/C=C/COC(=O)c3ccc(O)c(O)c3)CS[C@H]12)c1csc(N)n1)C(=O)O (some centres unmarked) [Ic, 7-[(Z)-2-(2-Aminothiazol-4-yl)-2-(1-carboxy-1-methylethoxyimino)acetamido]-3-[(E)-3-(3,4-dihydroxybenzoyloxy)-1-propen-1yl]-3-cephem-4-carboxylic acid]
ED50 (P. aeruginosa A9843A [2]): 0.25 mg/kg

Nc1nc(/C(=N/O)C(=O)NC2C(=O)N3C(C(=O)O)=C(/C=C/COC(=O)c4ccc(O)c(O)c4)CSC23)cs1 (centres unmarked) [Id, 7-[(Z)-2-(2-Aminothiazol-4-yl)-2-hydroxyiminoacetamido]-3-[(E)-3l-(3,4-dihydroxybenzoyloxy)-1-propen-1-yl]-3-cephem-4-carboxylic acid]
MIC (P. aeruginosa A9843A [1]): > 100 µg/mL
